Results reported in the supplement of paper PMC11741623.
The other results are listed elsewhere or left out. Interaction screen of human proteins with wild-type SARS-CoV-2 proteins by split-DHFR complementation in yeast, 1 µg/mL methotrexate. Value = fitness of the pair (three or more lineages) minus that of the viral protein without a human partner, on a scale set by negative (0) and fused positive (1) controls, mean of up to three cultures; higher = more likely to interact. Active = false discovery rate below 0.05 (one-sided t-test) in at least one culture. Nearly all pairs are not hits, and differences among them are mostly noise (correlation between cultures about 0.3); most hits were seen in one culture only. Human sequences are the Swiss-Prot entries looked up by gene name; the clone may be another isoform. NSP2 values were corrected by the authors for a growth advantage. Listed are human proteins with a hit and a random twelfth of the others.

B1: WDR27, A2RRH5 (protein)
chain: MENPQDIFSSNGGCLSDIVIEKYLVESKESVSHVQLACSMQDCAFPLDGTELCIWNTKDPSHQLLILRGHHQPITAMAFGNKVNPLLICSASLDYVIMWNLDECREKVLQGLVPRGTVMGSLLGKVLCLQLSLDDHVVAVCAGNKIFMLDIETQAVRAELQGHLGPVTAVEFCPWRAGTLISASEDRGFKVWDHCTGSLIYSSSVLSAYPLLSLFIDAESRQLVTGCADGQLWIFSLMDGHHYRRVARVDLRKKTETFSTRRVKSGLCSQPEESQLPSTSALGKGEQVEVTFPVLRLAPCDLSLIPNSACGCLSSENTRCVWIGSSVGLFVFNLANLEVEAALYYKDFQSLSILLAGSCALRNRTADQKVLCLLASLFGGKIAVLEINPAALVRAQQCPSMGQSLSVPASSCVLPTSPLYLGIAKEKSTKAASEQRRAARNVMKDQRLVFHSKVRSSGYASAPHVTMFSPKTNIKSEGKGSSRSRSSCAREAYPVECAVPTKPGPQVAAAPTCTRVCCIQYSGDGQWLACGLANHLLLVFDASLTGTPAVFSGHDGAVNAVCWSQDRRWLLSAARDGTLRMWSARGAELALLLGKDMFSKPIQSAQFYYIDAFILLSSGPEFQLLRYHIDTCKDEIKRYKQKSKSKLICRLSTTGAVDMTSLSAVNDFYSHIVLAAGRNRTVEVFDLNAGCSAAVIAEAHSRPVHQICQNKGSSFTTQQPQAYNLFLTTAIGDGMRLWDLRTLRCERHFEGHPTRGYPCGIAFSPCGRFAACGAEDRHAYVYEMGSSTFSHRLAGHTDTVTGVAFNPSAPQLATATLDGKLQLFLAE
B2: RFTN1, Q14699 (protein)
chain: MGCGLNKLEKRDEKRPGNIYSTLKRPQVETKIDVSYEYRFLEFTTLSAAELPGSSAVRLASLRDLPAQLLELYQQGFSLAALHPFVQPTHEREKTPLEHIFRAILIKKTDRSQKTDLHNEGYILELDCCSSLDHPTDQKLIPEFIKKIQEAASQGLKFVGVIPQYHSSVNSAGSSAPVSTANSTEDARDAKNARGDHASLENEKPGTGDVCSAPAGRNQSPEPSSGPRGEVPLAKQPSSPSGEGDGGELSPQGVSKTLDGPESNPLEVHEEPLSGKMEIFTLFNKPKSHQKCRQYYPVTIPLHVSKNGQTVSGLDANWLEHMSDHFRKGGMLVNAVFYLGIVNDSLHGLTDGVFIFEAVSTEDSKTIQGYDAIVVEQWTVLEGVEVQTDYVPLLNSLAAYGWQLTCVLPTPVVKTTSEGSVSTKQIVFLQRPCLPQKIKKKESKFQWRFSREEMHNRQMRKSKGKLSARDKQQAEENEKNLEDQSSKAGDMGNCVSGQQQEGGVSEEMKGPVQEDKGEQLSPGGLLCGVGVEGEAVQNGPASHSRALVGICTGHSNPGEDARDGDAEEVRELGTVEEN
B3: PAIP2, Q9BPZ3 (protein)
chain: MKDPSRSSTSPSIINEDVIINGHSHEDDNPFAEYMWMENEEEFNRQIEEELWEEEFIERCFQEMLEEEEEHEWFIPARDLPQTMDQIQDQFNDLVISDGSSLEDLVVKSNLNPNAKEFVPGVKYGNI
B4: RFPL3, O75679 (protein)
chain: MKRLSLVTTNRLSPQGNFLPLCTFPLAVDMAALFQEASSCPVCSDYLEKPMSLECGCTVCLKCINSLQKEPHGEDLLCCCCSMVSQRNKIRPNRQLERLVSHIKELEPKLKKILQMNPRMRKFQVDMTLDADTANNFLLISDDLRSVRSGLITQNRQDLAERFDVSVCILGSPRFTCGRHYWEVDVGTSTEWDLGVCRESVHCKGKIQLTTELGFWTVSLRDGSRLSASTVPLTFLLVDRKLQRVGIFLDMGMQNVSFFDAESGSHVYTFRSVSAEEPLRPFLAPSIPPNGDQGVLSICPLMNSGTTDAPVRPGEAK

target: SARS-CoV-2 E; test: yeast fitness gain over the viral ORF with no human partner (scaled fitness); higher = more likely to interact
Protocol: (§1)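 Split mouse DHFR complementation in pooled diploid yeast: human ORFeome clones carry one fragment and viral ORFs the other; barcoded lineages compete in 1 µg/mL methotrexate and fitness is read by barcode sequencing in up to three cultures.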

| Binder | yeast fitness gain |
| --- | --- |
| B1 | inactive: -0.075 |
| B2 | inactive: -0.2 |
| B3 | inactive: -0.0474 |
| B4 | inactive: -0.186 |

target: SARS-CoV-2 M; test: as above
Protocol: as §1

| Binder | yeast fitness gain |
| --- | --- |
| B1 | inactive: 0.0976 |
| B2 | inactive: 0.0394 |
| B3 | inactive: 0.0873 |
| B4 | inactive: 0.0313 |

target: SARS-CoV-2 NSP10; test: as above
Protocol: as §1

| Binder | yeast fitness gain |
| --- | --- |
| B1 | inactive: 0.0535 |
| B2 | inactive: 0.0711 |
| B3 | inactive: 0.0888 |
| B4 | inactive: 0.0403 |

target: SARS-CoV-2 NSP12; test: as above
Protocol: as §1

| Binder | yeast fitness gain |
| --- | --- |
| B1 | inactive: -0.0419 |
| B2 | inactive: -0.00221 |
| B3 | inactive: 0.0567 |
| B4 | inactive: -0.0239 |

target: SARS-CoV-2 NSP13; test: as above
Protocol: as §1

| Binder | yeast fitness gain |
| --- | --- |
| B1 | inactive: -0.134 |
| B2 | inactive: 0.0472 |
| B3 | inactive: 0.0745 |
| B4 | inactive: -0.00786 |

target: SARS-CoV-2 NSP16; test: as above
Protocol: as §1

| Binder | yeast fitness gain |
| --- | --- |
| B1 | inactive: -0.344 |
| B2 | inactive: 0.0405 |
| B3 | inactive: -0.0113 |
| B4 | inactive: 0.0586 |

target: SARS-CoV-2 NSP2; test: as above
Protocol: as §1

| Binder | yeast fitness gain |
| --- | --- |
| B1 | inactive: -0.26 |
| B2 | active: 0.334 |
| B3 | active: 0.405 |
| B4 | inactive: -0.194 |

target: SARS-CoV-2 NSP4; test: as above
Protocol: as §1

| Binder | yeast fitness gain |
| --- | --- |
| B1 | inactive: -0.000891 |
| B3 | inactive: 0.0664 |
| B4 | inactive: 0.103 |

target: SARS-CoV-2 NSP5; test: as above
Protocol: as §1

| Binder | yeast fitness gain |
| --- | --- |
| B1 | inactive: 0.000105 |
| B2 | inactive: 0.00123 |
| B3 | inactive: 0.0258 |
| B4 | inactive: -0.065 |

target: SARS-CoV-2 NSP9; test: as above
Protocol: as §1

| Binder | yeast fitness gain |
| --- | --- |
| B1 | inactive: 0.107 |
| B2 | inactive: -0.0303 |
| B3 | inactive: 0.0104 |
| B4 | inactive: 0.00397 |

target: SARS-CoV-2 ORF9B; test: as above
Protocol: as §1

| Binder | yeast fitness gain |
| --- | --- |
| B1 | inactive: 0.0142 |
| B2 | inactive: 0.00215 |
| B3 | inactive: 0.0252 |
| B4 | inactive: -0.175 |

target: SARS-CoV-2 S; test: as above
Protocol: as §1

| Binder | yeast fitness gain |
| --- | --- |
| B1 | inactive: 0.00921 |
| B2 | inactive: 0.0351 |
| B3 | inactive: 0.0506 |
| B4 | inactive: 0.0255 |

target: SARS-CoV-2 N; test: as above
Protocol: as §1

| Binder | yeast fitness gain |
| --- | --- |
| B2 | inactive: 0.158 |
| B3 | inactive: 0.137 |
| B4 | inactive: -0.0525 |

target: SARS-CoV-2 NSP1; test: as above
Protocol: as §1

| Binder | yeast fitness gain |
| --- | --- |
| B2 | inactive: 0.0448 |
| B3 | inactive: -0.109 |
| B4 | inactive: 0.0245 |

target: SARS-CoV-2 NSP15; test: as above
Protocol: as §1

| Binder | yeast fitness gain |
| --- | --- |
| B2 | inactive: -0.0492 |
| B3 | inactive: 0.000832 |
| B4 | inactive: -0.0823 |

target: SARS-CoV-2 NSP6; test: as above
Protocol: as §1

| Binder | yeast fitness gain |
| --- | --- |
| B2 | inactive: -0.0239 |
| B3 | inactive: 0.0239 |
| B4 | inactive: 0.0378 |

target: SARS-CoV-2 NSP8; test: as above
Protocol: as §1

| Binder | yeast fitness gain |
| --- | --- |
| B2 | inactive: -0.0886 |
| B3 | inactive: -0.0217 |
| B4 | inactive: 0.0137 |

target: SARS-CoV-2 ORF10; test: as above
Protocol: as §1

| Binder | yeast fitness gain |
| --- | --- |
| B2 | inactive: -0.0415 |
| B3 | inactive: 0.0367 |
| B4 | inactive: 0.061 |

target: SARS-CoV-2 ORF3A; test: as above
Protocol: as §1

| Binder | yeast fitness gain |
| --- | --- |
| B2 | inactive: 0.0214 |
| B3 | inactive: 0.0538 |
| B4 | inactive: -0.0132 |

target: SARS-CoV-2 ORF3B; test: as above
Protocol: as §1

| Binder | yeast fitness gain |
| --- | --- |
| B2 | inactive: -0.0401 |
| B3 | inactive: 0.068 |
| B4 | inactive: -0.0262 |

target: SARS-CoV-2 ORF6; test: as above
Protocol: as §1

| Binder | yeast fitness gain |
| --- | --- |
| B2 | inactive: 0.0324 |
| B3 | inactive: -0.0672 |
| B4 | inactive: 0.0138 |

target: SARS-CoV-2 ORF7A; test: as above
Protocol: as §1

| Binder | yeast fitness gain |
| --- | --- |
| B2 | inactive: 0.0782 |
| B3 | inactive: -0.0277 |
| B4 | inactive: -0.0371 |

target: SARS-CoV-2 ORF7B; test: as above
Protocol: as §1

| Binder | yeast fitness gain |
| --- | --- |
| B2 | inactive: 0.000546 |
| B3 | inactive: 0.0543 |
| B4 | inactive: 0.0214 |

target: SARS-CoV-2 ORF8; test: as above
Protocol: as §1

| Binder | yeast fitness gain |
| --- | --- |
| B2 | inactive: 0.0141 |
| B3 | inactive: 0.0137 |
| B4 | inactive: 0.0509 |

target: SARS-CoV-2 ORF9Bwu (the 73-codon ORF); test: as above
Protocol: as §1

| Binder | yeast fitness gain |
| --- | --- |
| B2 | inactive: 0.051 |
| B3 | inactive: 0.0147 |
| B4 | inactive: 0.0217 |

target: SARS-CoV-2 NSP14; test: as above
Protocol: as §1

| Binder | yeast fitness gain |
| --- | --- |
| B3 | inactive: -0.0448 |

target: SARS-CoV-2 NSP7; test: as above
Protocol: as §1

| Binder | yeast fitness gain |
| --- | --- |
| B3 | inactive: 0.076 |
| B4 | inactive: 0.0394 |
